Measured values from publication PMC8844851 (The Journal of Biological Chemistry, 2022).
Residue numbers refer to the chain shown, from its start. These are yes or no findings as the source states them, for the method shown. Binding seen in cells or lysates may run through a third protein. Some binding calls cover weakened binding; strength is not graded here. For part of these data: Tags and fused reporters may be left off the sequences shown.

Chains of the proteins cited; added tags and fusions are not shown. Lines headed by an entry give the natural chain unless they say otherwise; changes in a name come on top. A line that says so, or that is headed by a name, gives the form on record, which may keep a tag or linker. Residues count along the entry.
UniProt P32481: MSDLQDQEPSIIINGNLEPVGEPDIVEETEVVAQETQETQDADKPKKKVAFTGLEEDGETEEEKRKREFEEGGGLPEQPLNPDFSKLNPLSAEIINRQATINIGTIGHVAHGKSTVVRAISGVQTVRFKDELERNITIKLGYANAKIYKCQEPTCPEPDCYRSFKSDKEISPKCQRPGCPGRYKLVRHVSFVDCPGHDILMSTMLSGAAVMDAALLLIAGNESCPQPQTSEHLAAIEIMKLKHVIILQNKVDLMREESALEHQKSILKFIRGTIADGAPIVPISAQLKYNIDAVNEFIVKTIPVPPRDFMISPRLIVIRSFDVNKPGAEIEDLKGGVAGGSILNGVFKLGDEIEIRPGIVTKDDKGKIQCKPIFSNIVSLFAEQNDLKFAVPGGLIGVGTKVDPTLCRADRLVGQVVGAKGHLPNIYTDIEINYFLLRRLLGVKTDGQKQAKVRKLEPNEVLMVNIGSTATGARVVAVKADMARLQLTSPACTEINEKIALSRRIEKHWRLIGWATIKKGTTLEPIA
FLAG-tagged Gcd11 (1-514): residues 1-514 of P32481
FLAG-tagged Gcd11 lacking the first 60 amino acids: residues 61-527 of P32481

What was measured:
[1] = molecular target: T1, N-terminally FLAG-tagged Sui3 L134R/L135R (S. cerevisiae) (UniProt P09064); test: co-IP; N-terminally FLAG-tagged Sui3 variants (GAL1 promoter) precipitated with anti-FLAG beads from yeast extract; Western blot for Gcd11, Sui2, Cdc123 and Tif5-13xMYC
T1 sequence: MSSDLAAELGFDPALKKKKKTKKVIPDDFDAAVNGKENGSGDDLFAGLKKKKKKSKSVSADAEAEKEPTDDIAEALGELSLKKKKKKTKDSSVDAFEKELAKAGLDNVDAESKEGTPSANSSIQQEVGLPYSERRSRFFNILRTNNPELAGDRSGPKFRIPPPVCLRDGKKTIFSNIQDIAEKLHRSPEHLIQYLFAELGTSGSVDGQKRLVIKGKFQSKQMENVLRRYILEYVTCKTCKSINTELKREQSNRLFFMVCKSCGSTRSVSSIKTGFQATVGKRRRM

[2] = molecular target: T2, N-terminally FLAG-tagged Sui3 Y131A/S132A (S. cerevisiae) (UniProt P09064); test: as above
T2 sequence: T1 sequence with Y131A, S132A, R134L, R135L

[3] = molecular target: endogenously FLAG-tagged Gcd11 (S. cerevisiae) (UniProt P32481); test: co-IP; endogenously FLAG-tagged Sui2, Sui3 or Gcd11 precipitated with anti-FLAG beads from yeast extract, 4 °C, 2 h; Cdc123 signal normalised to the FLAG-tagged subunit, Gcd11 set to 100% (n = 3)
[4] = molecular target: T3, endogenously FLAG-tagged Sui3 (S. cerevisiae) (UniProt P09064); test: as above
T3 sequence: T1 sequence with R134L, R135L

[5] = molecular target: FLAG-tagged Gcd11 (1-514) (S. cerevisiae) (UniProt P32481); test: co-IP; FLAG-Gcd11 variants (coexpressed with endogenous Gcd11) precipitated with anti-FLAG beads from yeast whole cell extract (around 2 mg protein), 4 °C, 2 h; Western blot of coprecipitated proteins; Cdc123 quantified against WT Gcd11 (n = 3)
[6] = molecular target: FLAG-tagged Gcd11 D403R (S. cerevisiae) (UniProt P32481); test: as above
[7] = molecular target: FLAG-tagged Gcd11 V281R (S. cerevisiae) (UniProt P32481); test: as above
[8] = molecular target: FLAG-tagged Gcd11 WT (S. cerevisiae) (UniProt P32481); test: as above
[9] = molecular target: FLAG-tagged Gcd11 lacking the first 60 amino acids (S. cerevisiae) (UniProt P32481); test: as above

binding [1]: no binding
binding [2]: no binding
binding [3]: binds
binding [4]: binds
binding [5]: no binding
binding [6]: no binding
binding [7]: binds
binding [8]: binds
binding [9]: binds
B1: yeast eIF2α (Sui2) (protein, UniProt P20459 1-304)
chain: MSTSHCRFYENKYPEIDDIVMVNVQQIAEMGAYVKLLEYDNIEGMILLSELSRRRIRSIQKLIRVGKNDVAVVLRVDKEKGYIDLSKRRVSSEDIIKCEEKYQKSKTVHSILRYCAEKFQIPLEELYKTIAWPLSRKFGHAYEAFKLSIIDETVWEGIEPPSKDVLDELKNYISKRLTPQAVKIRADVEVSCFSYEGIDAIKDALKSAEDMSTEQMQVKVKLVAAPLYVLTTQALDKQKGIEQLESAIEKITEVITKYGGVCNITMPPKAVTATEDAELQALLESKELDNRSDSEDDEDESDDE
